Measurements: the supplement of paper PMC10126150
Values marked as one replicate rest on one cluster of the flow cell; about a third of the high ones do not repeat.

Tested on: ATP
Experiment: switch fluorescence ratio, 500 uM ATP over buffer (Cy3 cluster intensity, sum of 5 cycles each) (fold (ratio)); higher = stronger signal-on switching upon ATP binding; sequences stand for … in TCGTCGGCAGCGTCAGATGTGTATAAGAGACAGTTTTTTTTTTTTTTTTTTTTTTTTT…TC
Conditions: aptamer strand: ATP DNA aptamer (quencher-CACCTGGGGGAGTATTGCGGAGGAAGG + anchor), 100 nM annealed; ATP concentration: 500 uM; one replicate
Method in brief: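 Imaging in selection buffer was followed by imaging after 15 min with 500 uM ATP at 22 °C, for Cy3-labelled switching-strand clusters annealed to 100 nM quencher-labelled ATP aptamer on a modified Illumina MiSeq flow-cell. Five of these buffer/ATP cycles ran, separated by NaOH stripping and re-annealing. The fluorescence ratio per cluster is summed target-cycle over summed buffer-cycle Cy3 intensity, averaged per switch-domain sequence; clusters outside 100-1000 RFU were removed.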
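Note: ATP exposure 15 min at 22 °C before imaging.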

Row | Sequence | switch fluorescence ratio
1 | GACGTTGGTG | 1.02
2 | TTTAAAATGC | 1.71
3 | GTGCAAGTGT | 0.992
4 | CACCTTCTAT | 1.13
5 | TTGCACTTTT | 1.01
6 | ACTTGGATGT | 1.03
7 | GGTAACTATT | 1.03
8 | AATTAAGCAT | 0.99
9 | TGCGGTATTG | 1.02
10 | ACTTCATGAG | 1.05
11 | TTGGTCATCG | 1.05
12 | TGGGTCGGAC | 1.03
13 | TTTTTACATG | 1.03
14 | TGAGCACGTC | 0.975
15 | TTCATATTTA | 0.997
16 | TCTTTGAGGG | 0.946
17 | AACCAGGTAG | 1.83
18 | CGGTAAGGAG | 1
19 | GGCTACAGTC | 0.984
20 | AAGTCTACTG | 1.03
21 | ACAGCGGACC | 1.04
22 | AATCATGTCG | 1.08
23 | TATTAAGTAA | 1.02

Row | Sequence | switch fluorescence ratio
24 | TTATGGTATC | 1.02
25 | CAACCGTAT | 1.07
26 | AGAAATGAAC | 0.974
27 | ATGATTTTCA | 1.01
28 | ATAAACGAGG | 0.975
29 | AAGTTCAAGT | 0.964
30 | TGAGAAACAA | 1.01
31 | CAGAGGAGCG | 0.964
32 | CGTATTGTCC | 1.06
33 | TCCAATCCTT | 1.03
34 | AAAGTTAGTA | 0.998
35 | GAAATTTTAT | 1.01
36 | GCGATTCGTT | 0.982
37 | TCTGAACCAA | 1.12
38 | TGCTCCCCGC | 1.42
39 | CGCGATGTGT | 1.06
40 | GATCTGTGGC | 0.95
41 | ACGGGGAGAC | 0.999
42 | TTGCTGCTG | 0.991
43 | TAAGGTGGA | 0.988
44 | CTGGAGATGG | 1.02
45 | GCCGTCGTTA | 1.05
46 | TGGCTTAAAT | 1.01

Row | Sequence | switch fluorescence ratio
47 | TGTAGGGTCT | 0.97
48 | TGTTTTTGCC | 1.07
49 | CTCATTAAGT | 1.02
50 | GGGAAAATAC | 1.08
51 | CTTCGAACCA | 1.07
52 | TGCATTGT | 1.01
53 | AGACAGTTT | 1
54 | TAGAAGTCCG | 0.967
55 | TATAATCCAT | 1
56 | CAGCTGGGTG | 1.29
57 | TGCTAGAGGT | 1.06
58 | CAGAAGGCGA | 1.19
59 | AAAAACGTTT | 1.01
60 | TACAGACTTA | 1.02
61 | TACCGTTAGT | 1.04
62 | TAATGTTCGT | 0.976
63 | GCCCTACCGA | 1.09
64 | TGAAATTTGA | 1.03
65 | CATCTCGGTG | 0.999
66 | CGCGTCTGGT | 0.996
67 | GGGATCGGTA | 0.975
68 | AGATCATTAA | 0.981
69 | GGTCTTAGGT | 0.996

Row | Sequence | switch fluorescence ratio
70 | CCAAAGGCTG | 0.936
71 | CTGGGTCAAA | 1.04
72 | TTAACGTAGC | 1.13
73 | TTGTTGCGAT | 1.02
74 | GCATTAGGAG | 1.05
75 | AGTACCCCCG | 1.19
76 | ATGCCAC | 1.04
77 | CCAGTAACAG | 0.979
78 | AACAAAACT | 0.979
79 | TTTACGCCAT | 1.22
80 | GACGTGGATT | 1.07
81 | AAGGGCGTCC | 0.96
82 | CCGTGAAACC | 0.988
83 | CCGGAAATGT | 1.03
84 | TCGCATGATC | 1.59
85 | GTTGGGAAAC | 1.04
86 | ACTCGCACAG | 3.25
87 | GCCGTGGTGT | 1.09
88 | GCTCTAAAAG | 1.01
89 | ATGTCACGGG | 1.03
90 | TACCGAGAAA | 1.08
91 | CAGGCCGGCC | 1.04
92 | CATCGTATGT | 0.961

Row | Sequence | switch fluorescence ratio
93 | CTCGCCACG | 1.04
94 | TGCTTCATGC | 1.03
95 | CAGGATTGAA | 0.989
96 | TGGCCATCGA | 0.952
97 | GAAACGGTAT | 1.07
98 | ATCGTTAGTC | 0.94
99 | GATCTCATTA | 0.951
100 | GGCTGGGGTT | 1.02
101 | GTGTTTGACG | 1
102 | GTATGGGACA | 0.996
103 | TTTTACACAA | 1.05
104 | GCGTGGCTCG | 0.981
105 | GGTTTATTTA | 0.988
106 | GAGTTTATAA | 0.97
107 | CCGGTGTGGC | 1.08
108 | CATGTCGGT | 1.03
109 | TGTTAAGCTA | 0.993
110 | GGCGGAAGGC | 1.01
111 | GTATATATGG | 1.07
112 | GAGCGTAGAA | 0.991
113 | TTATTTGCGA | 1.06
114 | TTGTGGCTCA | 0.953
115 | TCGGTTCACT | 0.975

Row | Sequence | switch fluorescence ratio
116 | ACTTAGATGC | 1.03
117 | CCCGTCGTTC | 1.03
118 | TACTTTTTG | 0.977
119 | CGATATAGA | 1.03
120 | AGGGCTAGGA | 0.978
121 | TAGACCTTGA | 1.04
122 | GTGGGTCGGA | 1.01
123 | AATTTTGCCT | 0.998
124 | TTGCAGTGAA | 0.988
125 | TCTCTATTAT | 1.03
126 | GTCACGCCG | 1.11
127 | AACCTATGTA | 1.02
128 | TCTGCGAAAG | 0.993
129 | CGGAATGCCA | 0.964
130 | AAGACTAACT | 1.1
131 | AAAATGATGT | 0.981
132 | ACGGACCTT | 1.41
133 | TTTTAGCCGC | 1.07
134 | TTTATGCTAA | 0.996
135 | CTAGCGTCGG | 0.996
136 | TCACAGATAG | 0.981
137 | GGGGCAGAGT | 0.971
138 | CGGTTGATAA | 0.963

Row | Sequence | switch fluorescence ratio
139 | CATATCCCAT | 1
140 | CGACGACCCT | 1.47
141 | TGTTGAGAGG | 1.03
142 | ACGTAATTTA | 1.14
143 | GGCTTTCGAA | 0.989
144 | CGGCGGACTG | 0.958
145 | TTCGGGAAAT | 1.04
146 | CCCGAAGGGG | 1.01
147 | TACCACAGGC | 1.13
148 | TTATAACTC | 1.01
149 | GCGGTTCCGT | 1.04
150 | CAGGGGTGAC | 1.01
151 | TGAGGTTACA | 1.04
152 | GAATGTAGTG | 0.96
153 | TGGGGTTCCA | 0.983
154 | GCTTTTCTCT | 1.02
155 | AGACCCCGTA | 1.02
156 | AGACGAGAAG | 1.03
157 | AGAATGCGAG | 1.02
